{"source": "paper PMC4336329", "about": "(PLoS ONE, 2015)", "note": "Out of some 310,000 compounds screened, about 2,200 (0.71%) showed an effect of 50% or more. Effects have a minus sign here. This is one part of the list."}
{"target": "human ether-à-go-go-related gene (hERG) potassium channel (human, UniProt Q12809)", "sequence (Q12809 whole entry, looked up)": "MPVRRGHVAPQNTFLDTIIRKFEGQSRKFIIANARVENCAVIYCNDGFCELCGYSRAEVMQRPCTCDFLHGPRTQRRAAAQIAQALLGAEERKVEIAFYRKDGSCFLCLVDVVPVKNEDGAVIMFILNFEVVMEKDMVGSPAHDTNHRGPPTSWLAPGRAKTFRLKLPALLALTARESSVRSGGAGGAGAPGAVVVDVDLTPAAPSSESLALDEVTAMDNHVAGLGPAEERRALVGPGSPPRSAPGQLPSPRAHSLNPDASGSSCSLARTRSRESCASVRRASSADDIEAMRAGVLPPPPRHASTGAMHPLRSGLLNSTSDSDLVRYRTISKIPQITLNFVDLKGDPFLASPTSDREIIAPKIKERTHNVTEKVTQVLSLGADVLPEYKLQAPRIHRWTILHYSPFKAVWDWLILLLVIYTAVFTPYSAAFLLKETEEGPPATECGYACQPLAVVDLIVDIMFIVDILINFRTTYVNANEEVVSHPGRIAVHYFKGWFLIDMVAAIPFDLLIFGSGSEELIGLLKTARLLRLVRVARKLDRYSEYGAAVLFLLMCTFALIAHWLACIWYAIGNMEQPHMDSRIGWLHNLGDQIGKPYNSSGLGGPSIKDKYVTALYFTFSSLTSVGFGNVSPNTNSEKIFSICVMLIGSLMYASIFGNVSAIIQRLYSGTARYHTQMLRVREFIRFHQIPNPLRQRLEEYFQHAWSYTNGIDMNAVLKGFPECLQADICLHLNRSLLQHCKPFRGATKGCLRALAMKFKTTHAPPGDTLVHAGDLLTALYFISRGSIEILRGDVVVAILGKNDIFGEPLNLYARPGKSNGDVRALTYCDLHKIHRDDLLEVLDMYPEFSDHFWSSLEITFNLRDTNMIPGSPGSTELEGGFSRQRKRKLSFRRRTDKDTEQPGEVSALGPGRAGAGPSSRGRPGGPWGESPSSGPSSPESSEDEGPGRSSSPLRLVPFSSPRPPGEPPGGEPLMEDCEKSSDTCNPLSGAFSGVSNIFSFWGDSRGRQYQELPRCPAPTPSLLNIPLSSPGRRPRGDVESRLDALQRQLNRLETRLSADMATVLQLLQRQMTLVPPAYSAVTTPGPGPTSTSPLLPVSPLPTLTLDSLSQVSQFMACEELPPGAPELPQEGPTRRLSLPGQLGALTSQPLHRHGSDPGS", "experiment": "primary screen, population patch clamp on CHO cells stably expressing hERG", "units": {"hERG current change (%, negative = inhibition) at 1uM": "%"}}
{"smiles": "COc1ccccc1C(=O)C1CCCN(C(=O)CN2CCCCC2=O)C1", "note": "(centres unmarked)", "hERG current change (%, negative = inhibition) at 1uM": 12.6}
{"smiles": "CC1=C(C(=O)NCc2ccccc2)C(c2cc(Br)cc(Br)c2OC(C)C)NC(=O)N1", "note": "(centres unmarked)", "hERG current change (%, negative = inhibition) at 1uM": -7.48}
{"smiles": "CC(=O)Nc1ccc(S(=O)(=O)NCCS(=O)(=O)N2CCN(c3ccccc3)CC2)cc1", "hERG current change (%, negative = inhibition) at 1uM": 3.85}
{"smiles": "CCN(CC)C(=O)Cc1c(O)c2ccccc2[nH]c1=O", "hERG current change (%, negative = inhibition) at 1uM": 9.05}
{"smiles": "COc1ccc(-c2cn3c4c(sc3n2)CCCC4)cc1", "hERG current change (%, negative = inhibition) at 1uM": -7.4}
{"smiles": "O=C(Nc1ccc(F)cc1)c1cc(S(=O)(=O)N2CCOCC2)cs1", "hERG current change (%, negative = inhibition) at 1uM": 5.73}
{"smiles": "Cc1cccc(OCC(=O)Nc2cc(NC(=O)COc3cccc(C)c3)cc(C(=O)O)c2)c1", "hERG current change (%, negative = inhibition) at 1uM": 17}
{"smiles": "CN(C)/C=C/C(=O)c1ccc2noc(-c3cccc(F)c3)c2c1", "hERG current change (%, negative = inhibition) at 1uM": 7.15}
{"smiles": "c1ccc(-c2cnnc(SCc3cn4cccnc4n3)n2)cc1", "hERG current change (%, negative = inhibition) at 1uM": 5.31}
{"smiles": "CC1=C(C(=O)OCC2CCCO2)C(c2ccc(O)cc2)NC(=O)N1", "note": "(centres unmarked)", "hERG current change (%, negative = inhibition) at 1uM": -5.18}
{"smiles": "CCn1c(Cc2ccccc2)nnc1SCC(=O)N1CCCCC1", "hERG current change (%, negative = inhibition) at 1uM": 11.7}
{"smiles": "CCOC(=O)c1c(/N=C/c2cccc([N+](=O)[O-])c2O)sc(C)c1C", "hERG current change (%, negative = inhibition) at 1uM": 10.6}
{"smiles": "COc1cc(CN2CC(C)CC(C)C2)cc([N+](=O)[O-])c1O", "note": "(centres unmarked)", "hERG current change (%, negative = inhibition) at 1uM": 13.5}
{"smiles": "CCC(C)C1C(C#N)=C(N)Oc2n[nH]c(-c3ccccc3)c21", "note": "(centres unmarked)", "hERG current change (%, negative = inhibition) at 1uM": 9.06}
{"smiles": "Cc1cc(Nc2ccc(Cl)cc2)n(-c2cccc(Cl)c2)n1", "hERG current change (%, negative = inhibition) at 1uM": -3.54}
{"smiles": "Cc1ccc(S(=O)(=O)n2cccc2C)cc1", "hERG current change (%, negative = inhibition) at 1uM": 15}
{"smiles": "O=C(NC1CCN(Cc2ccccc2)CC1)C1CCCN(S(=O)(=O)c2cccc3nonc23)C1", "note": "(centres unmarked)", "hERG current change (%, negative = inhibition) at 1uM": -13.5}
{"smiles": "COc1cc(N2CCOCC2)ncn1", "hERG current change (%, negative = inhibition) at 1uM": 5.39}
{"smiles": "O=S(=O)(c1ccc(Oc2ccccc2)cc1)N1CCOCC1", "hERG current change (%, negative = inhibition) at 1uM": 1.61}
{"smiles": "CCOC(=O)c1ccc(NC(=O)CSc2nnc(-c3cccs3)n2CC)cc1", "hERG current change (%, negative = inhibition) at 1uM": 6.82}
{"smiles": "Cc1ccc(C)c(NC(=O)CCN2C(=O)C3CC=CCC3C2=O)c1", "note": "(centres unmarked)", "hERG current change (%, negative = inhibition) at 1uM": 8.68}
{"smiles": "CC(=O)Nc1ccc(S(=O)(=O)N2CCN(C(=O)c3ncoc3-c3ccc(F)cc3)CC2)cc1", "hERG current change (%, negative = inhibition) at 1uM": -6.02}
{"smiles": "O=C(O)c1cc(NC(=O)c2cccc(C(=O)Nc3cc(C(=O)O)cc(C(=O)O)c3)c2)cc(C(=O)O)c1", "hERG current change (%, negative = inhibition) at 1uM": 14.1}
{"smiles": "O=C(NC1=NCCS1)c1cccs1", "hERG current change (%, negative = inhibition) at 1uM": 4.23}
{"smiles": "C=CCNc1ccc(C(=O)O)cc1", "hERG current change (%, negative = inhibition) at 1uM": 0.797}
{"smiles": "COc1ccc(-c2c(-c3ccc(OCC(=O)NN)cc3O)n[nH]c2C)cc1", "hERG current change (%, negative = inhibition) at 1uM": 10.1}
{"smiles": "CN(Cc1ccon1)C(=O)CC1C(=O)NCCN1Cc1cccc(Oc2ccccc2)c1", "note": "(centres unmarked)", "hERG current change (%, negative = inhibition) at 1uM": -0.609}
{"smiles": "COc1ccc(Cl)cc1NC(=O)c1sc2nc(C)nc(N3CCOCC3)c2c1C", "hERG current change (%, negative = inhibition) at 1uM": 5.16}
{"smiles": "COc1cccc(C(=O)C2CCCN(Cc3ccc(F)cc3)C2)c1", "note": "(centres unmarked)", "hERG current change (%, negative = inhibition) at 1uM": 4.29}
{"smiles": "O=C(Nc1ccon1)c1cnc2sccn2c1=O", "hERG current change (%, negative = inhibition) at 1uM": 10.9}
{"smiles": "Cc1ccnc(SCC(=O)N2CCN(c3ccccc3)CC2)n1", "hERG current change (%, negative = inhibition) at 1uM": -10.2}
{"smiles": "CC(C)CN1CCC(=O)N(CCO)CC1", "hERG current change (%, negative = inhibition) at 1uM": 1.57}
{"smiles": "Cc1noc(C)c1C(=O)OCC(=O)Nc1ccccc1C(=O)NC(C)c1ccccc1", "note": "(centres unmarked)", "hERG current change (%, negative = inhibition) at 1uM": 9.01}
{"smiles": "Nc1ccccc1C(=O)NNC1=C(C(=O)C(F)(F)F)CCC1", "hERG current change (%, negative = inhibition) at 1uM": 11.4}
{"smiles": "COc1cccc(CN(C)C(=O)c2ccc(C)c(S(=O)(=O)N3CCCCC3)c2)c1", "hERG current change (%, negative = inhibition) at 1uM": 5.78}
{"smiles": "CC12CCC(=O)N1C(C(=O)N1CCN(S(=O)(=O)c3ccc(F)c(F)c3)CC1)CS2", "note": "(centres unmarked)", "hERG current change (%, negative = inhibition) at 1uM": -18.5}
{"smiles": "COc1cccc(N2CC(C(=O)Nc3nnc(SCCC4OCCO4)s3)CC2=O)c1", "note": "(centres unmarked)", "hERG current change (%, negative = inhibition) at 1uM": 7.66}
{"smiles": "CCOC(=O)C1=C(c2ccccc2)Nc2ncnn2C1c1ccc(C(=O)O)cc1", "note": "(centres unmarked)", "hERG current change (%, negative = inhibition) at 1uM": -1.17}
{"smiles": "CC(C)(C)C(=O)NC(=S)Nc1cccc(C(=O)O)c1", "hERG current change (%, negative = inhibition) at 1uM": -4.2}
{"smiles": "CCS(=O)(=O)c1ccc2oc(Nc3ccccc3C)nc2c1", "hERG current change (%, negative = inhibition) at 1uM": 11.2}
{"smiles": "CCOC(=O)C1=C(C)N(CCCC(=O)O)C(=O)NC1c1ccc(OC)cc1", "note": "(centres unmarked)", "hERG current change (%, negative = inhibition) at 1uM": 12.7}
{"smiles": "O=S(=O)(Nc1ccccc1N1CCOCC1)c1ccc(F)c(Cl)c1", "hERG current change (%, negative = inhibition) at 1uM": 9.98}
{"smiles": "CCCCN(Cc1nc2ccccc2c(=O)[nH]1)C(=O)COc1ccc(F)cc1Cl", "hERG current change (%, negative = inhibition) at 1uM": 10.5}
{"smiles": "O=C(N=C1c2ccccc2CN1c1ccc(F)c(Cl)c1)c1cccnc1Cl", "hERG current change (%, negative = inhibition) at 1uM": 13.2}
{"smiles": "NNC(=O)CS(=O)(=O)c1ccc(Cl)cc1", "hERG current change (%, negative = inhibition) at 1uM": 7.58}
{"smiles": "CC(C)C(c1nnnn1Cc1ccco1)N1CCN(C2CCCC2)CC1.Cl", "note": "(centres unmarked)", "hERG current change (%, negative = inhibition) at 1uM": 10.2}
{"smiles": "CC[C@H]1OC(=O)[C@H](C)[C@@H](O[C@H]2C[C@@](C)(OC)[C@@H](O)[C@H](C)O2)[C@H](C)[C@@H](O[C@@H]2O[C@H](C)C[C@H](N(C)C)[C@H]2O)[C@](C)(OC)C[C@@H](C)C(=O)[C@H](C)[C@@H](O)[C@]1(C)O", "hERG current change (%, negative = inhibition) at 1uM": 18.9}
{"smiles": "Cc1cccc(NC(=O)CNC(=O)c2ccccc2Cl)n1", "hERG current change (%, negative = inhibition) at 1uM": 3.57}
{"smiles": "Cc1ccc2nc(SCC(=O)Nc3ccc(F)cc3)nc(=O)n2c1", "hERG current change (%, negative = inhibition) at 1uM": 3.45}
{"smiles": "O=C(NCc1ccc2c(c1)OCO2)c1ccc(Cl)c(S(=O)(=O)NCc2ccccc2)c1", "hERG current change (%, negative = inhibition) at 1uM": -3.23}
{"smiles": "COc1cc(C#N)ccc1OCC(=O)Nc1ccc(C)c(S(=O)(=O)N2CCOCC2)c1", "hERG current change (%, negative = inhibition) at 1uM": -0.642}
{"smiles": "O=C(NCc1n[nH]c(=S)n1-c1ccc(Br)cc1)c1ccc(S(=O)(=O)N2CCOCC2)cc1", "hERG current change (%, negative = inhibition) at 1uM": 18}
{"smiles": "O=C(O)Cn1cnc2c(=S)nc[nH]c21", "hERG current change (%, negative = inhibition) at 1uM": 12.4}
{"smiles": "Cc1ccc(NC(=O)C2CCCN2C(=O)c2cccs2)c(C)c1", "note": "(centres unmarked)", "hERG current change (%, negative = inhibition) at 1uM": 9.88}
{"smiles": "COc1ccccc1OCc1nn[nH]n1", "hERG current change (%, negative = inhibition) at 1uM": 19.6}
{"smiles": "O=C(Cc1ccccc1)NC(=S)Nc1cccc(C(F)(F)F)c1", "hERG current change (%, negative = inhibition) at 1uM": 10.7}
